# Measurements published in PubChem BioAssay AID2546 (National Center for Advancing Translational Sciences (NCATS), 2010).
# “And” between values parts separate entries of the source, which are not always exact repeats. Identical values can stand only once. Out of some 310,000 compounds screened, about 11,000 (3.5%) were called active. Inconclusive means that the source gave no clear call. Such entries were picked first, then a sample of the others. Calls come from the whole dose curve; as a rule, active = well fitted inhibition curve with a large enough effect; inconclusive = small, poorly fitted or top-dose-only effect, or effect the other way; inactive = flat fitted curve, though single readings scatter. Potencies beside an inconclusive call are fits to weak or partial responses and may not hold up.
# Experiment: VP16 counterscreen qHTS for inhibitors of ROR gamma transcriptional activity;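 note: Gal4-VP16 expression switched on by copper sulfate through the metallothionein promoter; nearly all actives have a fitted effect of over 50% in size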
# Conditions: Drosophila S2 Gal4-VP16 UAS-luciferase, luminescence, 20 h; activity, negative = inhibition: at 53.6 µM (top of the series)
# % is set by controls: 0 for no effect and ±100 for the full control effect; potency is the fitted concentration of half-maximal effect; tags give direction and shape of the fitted curve.
SMILES,Potency,"activity, negative = inhibition"
Cc1ccc(S(=O)(=O)N2CCC(=O)N(CCOCc3ccc(C(F)(F)F)cc3)CC2)cc1,"inconclusive: 35.5 µM [inhibitor, single point] and inconclusive: 31.6 µM [inhibitor, single point]",–
CCC(C)[C@@H](NC(=O)OC(C)(C)C)c1nnc(S(=O)(=O)Cc2cccc(C)c2)o1 (some centres undefined),active: 5.01 µM,–
COc1cccc(/C=C2\SC(=S)N(C(C(=O)O)c3ccccc3)C2=O)c1OC (centres undefined),"inconclusive: 20 µM [inhibitor, single point]",–
Oc1ccc(Cl)cc1C1=NNC(c2cc(Br)cc3c2OCOC3)C1 (centres undefined),"inconclusive: 35.5 µM [inhibitor, single point]",–
COc1ccc(C2CC(c3ccccc3)n3nnnc3N2)cc1 (centres undefined),–,inactive: -3.93%
C/C(CC(=O)Nc1cccc2c1CCCC2)=N\NC(=O)c1cccc2ccccc12,"inconclusive: 20 µM [inhibitor, single point]",–
COc1ccc(/C(C)=N/NC(=S)Nc2cc(C)ccc2C)cc1,active: 11.2 µM,–
CC(=O)c1ccc(NC(=O)COC(=O)c2c3c(nc4ccccc24)/C(=C\c2cccs2)CCC3)cc1,"inconclusive: 12.6 µM [inhibitor, partial curve, poor fit]",–
CC(=O)c1nc(N2C(=O)CC(Cc3ccccc3)C2=O)sc1C (centres undefined),"inconclusive: 5.62 µM [activator, single point]",–
C(=N\Nc1nc2ccccc2s1)/c1ccco1,"inconclusive: 20 µM [inhibitor, single point]",–
O=C(Nc1ccc(N2CCOCC2)cc1N1CCOCC1)c1ccc(Cl)cc1,–,inactive: 3.65%
Cc1onc(-c2ccccc2Cl)c1C(=O)OCC(=O)Nc1cccc(S(=O)(=O)N(C)C)c1,"inconclusive: 35.5 µM [inhibitor, single point]",–
COc1ccc(CNc2nc3ccccc3n2CCN2CCOCC2)cc1,–,inactive: -2.98%
CCCn1c(SCC(=O)c2c(C)[nH]c(C)c2C(=O)OCC)nc2ccccc21,"inconclusive: 35.5 µM [inhibitor, single point]",–
CN(C)S(=O)(=O)c1cccc(NC(=O)c2sccc2-c2ccccc2)c1,"inconclusive: 12.6 µM [inhibitor, single point]",–
COc1cccc(NC=C2C(=O)OC3(CCCCC3)OC2=O)c1,–,inactive: -0.562%
Oc1ccccc1N=Nc1nc(-c2ccccc2)c(-c2ccccc2)[nH]1,active: 3.98 µM,–
c1ccc2c(N3CCCCC3)nc(N3CCCCC3)nc2c1,–,inactive: 4.51%
O=C(N=Nc1c(O)[nH]c2ccc(Cl)cc12)c1cc(-c2cccs2)nc2ccccc12,"inconclusive: 7.08 µM [inhibitor, full curve, poor fit]",–
CC(=O)N(Cc1cccnc1)c1cccc(-c2nc3ccccc3s2)c1,"inconclusive: 35.5 µM [inhibitor, single point]",–
CCOc1ccc(C(=O)NCCc2ccccc2)cc1,active: 8.91 µM,–
CCNC(=S)Nc1scc(-c2ccccc2)c1C(=O)OCC,active: 2.51 µM,–
C=CCn1c(SCC(=O)NNC(=O)Nc2ccc(C)cc2)nnc1-c1ccccc1,–,inactive: 4.32%
Cc1ccc(-c2nnn3c2nc(NCCc2ccc(S(N)(=O)=O)cc2)c2ccccc23)cc1,"inconclusive: 0.631 µM [inhibitor, single point]",–
Cc1noc(/C=C/c2ccco2)c1S(=O)(=O)N1CCC(C(=O)Nc2ccc(Cl)cn2)CC1,"inconclusive: 15.8 µM [inhibitor, partial curve]",–

SMILES,Potency,"activity, negative = inhibition"
CCNC(=O)NC(=O)C(C)Sc1nc2cc(C(=O)OC)ccc2c(=O)n1-c1ccccc1 (centres undefined),"inconclusive: 35.5 µM [inhibitor, single point]",–
COc1ccc(OCCN2C(=O)c3ccccc3C2=O)c([N+](=O)[O-])c1,–,inactive: -4.7%
CCOC(=O)c1cc(C)nc(S(C)(=O)=O)c1C#N,"inconclusive: 17.8 µM [inhibitor, single point]",–
CCCOc1ccc(N2C(=O)CC(SCc3nc4ccccc4[nH]3)C2=O)cc1 (centres undefined),"inconclusive: 8.91 µM [inhibitor, partial curve]",–
Nc1nonc1C(=O)NCCN=Cc1cc(Cc2ccccc2)cc(Br)c1O,"inconclusive: 28.2 µM [inhibitor, single point]",–
CN(C)S(=O)(=O)c1ccc(Cl)c(NC(=O)COc2ccccc2[N+](=O)[O-])c1,"inconclusive: 14.1 µM [inhibitor, single point]",–
O=C(NNC1=NCCC1)c1cccc(S(=O)(=O)N2CCCC2)c1,"inconclusive: 17.8 µM [inhibitor, partial curve, poor fit]",–
CCC(O)(CC)C(=O)N/N=C/c1cc(Br)cc(Br)c1O,active: 3.16 µM,–
CCCCNC(=S)NCC(c1ccccc1)c1c[nH]c2ccccc12 (centres undefined),"inconclusive: 35.5 µM [inhibitor, single point]",–
O=[N+]([O-])c1ccc(-n2nnnc2-c2ccccc2)c([N+](=O)[O-])c1,active: 5.62 µM,–
O=C(CCCn1nnc2ccccc2c1=O)N[C@@H](Cc1ccccc1)C(=O)O,–,inactive: 4.63%
O=C(Cc1cccs1)NNC(=S)NC(=O)c1ccccc1,active: 10 µM,–
Cc1ccc(COc2ccc(/C=N/O)cc2)cc1,"inconclusive: 35.5 µM [inhibitor, single point]",–
Cc1cc(C(=O)N/N=C/c2cc(Br)c(Br)o2)n[nH]1,"inconclusive: 31.6 µM [activator, single point]",–
CC(C)(C)CC(=O)NC(=S)NCc1ccco1,"inconclusive: 15.8 µM [inhibitor, single point]",–
COc1ccc2nc(NC(=O)c3cccc(OCc4c(C)noc4C)c3)sc2c1,"inconclusive: 22.4 µM [inhibitor, single point]",–
COc1ccc(-n2c(-c3ccc(Br)cc3)nc(=S)c3c2CCCC3)cc1,active: 10 µM,–
COc1ccc(/C(C)=N/NC(=O)c2ccc(N(C)C)cc2)cc1,–,inactive: 2.11%
CCOC(=O)c1c(NC(=O)C(NCCN(C)C)c2ccccc2)sc2c1CCCC2 (centres undefined),active: 11.2 µM,–
CCOc1cc(NC(=O)c2cnccn2)c(OCC)cc1NC(=O)c1cccc(F)c1,–,inactive: -3.34%
CN(C)S(=O)(=O)c1ccc(-c2cn3ccccc3n2)cc1,active: 17.8 µM,–
Cc1cc(NC(=O)c2ccc3c(c2)OCO3)no1,"inconclusive: 12.6 µM [inhibitor, single point]",–
Cc1cc(C(C)(C)C)cc(C)c1COC(=O)c1cccnc1,–,inactive: -2.47%
Clc1ccc2c(N/N=C/c3ccccc3Br)ccnc2c1,active: 17.8 µM,–
CC1=NN(C(N)=S)C(=O)C1N=Nc1c(Br)cc(Br)cc1Br (centres undefined),active: 1.26 µM,–

SMILES,Potency,"activity, negative = inhibition"
Nc1ncnc(Sc2ccccc2)c1[N+](=O)[O-],"inconclusive: 25.1 µM [inhibitor, single point]",–
CC1=C(C(=O)Nc2ccccc2)C2(CCCCC2)C(C(N)=O)C(=S)N1 (centres undefined),"inconclusive: 5.62 µM [activator, single point]",–
S=c1[nH]nc(-c2ccccn2)n1/N=C/c1cccc2ccccc12,"inconclusive: 35.5 µM [inhibitor, single point]",–
O=C(Nc1nccs1)c1cncc(Br)c1,"inconclusive: 31.6 µM [inhibitor, single point]",–
Cc1nn(C)c2nc(NNC(=O)Nc3cc(Cl)nc(Cl)c3)cc(C(C)C)c12,active: 15.8 µM,–
C=CCN1C(C(=O)c2ccccc2)=C(OC(=O)COc2ccccc2)c2ccccc2S1(=O)=O,"inconclusive: 22.4 µM [inhibitor, single point]",–
Oc1ccc(-c2nnc(SCC3CCCCC3)o2)cc1,active: 8.91 µM,–
CCOC(=O)c1sc(NC(=O)Nc2ccccc2Cl)cc1C,"inconclusive: 35.5 µM [inhibitor, single point]",–
Cc1ccc(/C=N/Nc2nc(Cl)c(Cl)cc2Cl)s1,"inconclusive: 35.5 µM [inhibitor, single point]",–
CN(C)c1ccc(/C=N\NC(=O)c2csnn2)cc1,active: 17.8 µM,–
CC(=O)O[C@@H]1[C@@H](O)CN[C@@H]1Cc1ccccc1,active: 0.282 µM,–
CC(C)CNC(=O)NC(=O)COC(=O)c1ccccc1Sc1ccc(C(F)(F)F)cc1[N+](=O)[O-],"inconclusive: 35.5 µM [inhibitor, single point]",–
S=C1NC[C@H](Cc2ccccc2)N1CCc1cccc2ccccc12,active: 5.62 µM,–
COc1ccc(Br)cc1CN1CCN(S(=O)(=O)Cc2ccccc2)CC1,–,inactive: -2.01%
CCN(CC)S(=O)(=O)c1ccc(N2CCN(CCOc3ccc(OC)cc3)CC2)nc1,"inconclusive: 28.2 µM [inhibitor, single point]",–
C/C(CC(=O)Nc1ccc(N(C)C)cc1)=N\NC(=O)c1ccccn1,"inconclusive: 20 µM [inhibitor, single point]",–
CC(C)Cn1c(-c2cccs2)nc2ccccc21,"inconclusive: 35.5 µM [inhibitor, single point]",–
COc1ccccc1-c1nnc(SCC(=O)O)n1-c1ccccc1,–,inactive: 2.19%
O=C(c1ccccc1)N1CCN(c2ccc(Cl)cc2)CC1,–,inactive: -9.27%
COc1cc(/C=N/NC(=O)c2cc3ccccc3cc2O)ccc1OCCN1CCCCC1,"inconclusive: 12.6 µM [inhibitor, single point]",–
Cc1ccc2nc(-c3ccccn3)[nH]c2c1,active: 6.31 µM,–
CC(C)(C)C(=O)NC(=S)NNC(=O)c1ccc(-c2ccccc2)cc1,active: 15.8 µM,–
N#CC1=C(N)N2C(=C(C#N)C1c1cccc(Br)c1)Nc1ccccc12 (centres undefined),active: 12.6 µM,–
Cc1cc(=O)oc2cc(OCC(=O)N/N=C/c3ccccc3[N+](=O)[O-])ccc12,"inconclusive: 20 µM [inhibitor, single point]",–
